Consider 2 molecules from PMC8750214, “N-Glycosylation Facilitates 4-1BB Membrane Localization by Avoiding Its Multimerization” (Cells, 2022).

In this assay the target is T1, human Fc-tagged 4-1BBL (UniProt P41273 partial chain).
T1 construct: 4-1BB ligand (4-1BBL/CD137L/TNFSF9), recombinant Fc-tagged protein from Sino Biological; 'human' in the methods describes the Fc tag; The ligand is probably the human extracellular part; No catalogue number is printed; also called 4-1BB ligand; CD137L; source: bought: Sino Biological, expressed in HEK293 cells
Nature of the assay: BLI; Octet RED384; His-tagged 4-1BB (native or deglycosylated) loaded on NTA biosensor at 200 nM; single concentration of 4-1BBL (50 mM [sic]) in kinetic buffer; KD calculated on a 1:1 binding ratio. The following applies: both partners purified.

Broadly, the Kd is the constant that tells how readily two partners part at equilibrium.

B1: His-tagged 4-1BB protein, deglycosylated with PNGase F (receptor)
chain: not shown
modifications: N-glycans removed by PNGase F (sites N138 and N149)
notes: human 4-1BB (CD137/TNFRSF9), recombinant His-tagged protein from Sino Biological, deglycosylated; Same bought protein as m1 after PNGase F. PNGase F turns the glycosylated asparagines into aspartates; also called deglycosylated 4-1BB; N-glycan-abolished 4-1BB protein; source: bought: Sino Biological, expressed in HEK293 cells; treated with PNGase F under non-reducing conditions
For the molecule B1, the equilibrium dissociation constant (Kd) was 11 nM.

B2: His-tagged 4-1BB protein, native (N-glycosylated, PNGase F-untreated) (receptor)
chain: not shown
modifications: N-glycans on N138 and N149 (intact N-glycosylation)
notes: human 4-1BB (CD137/TNFRSF9), recombinant His-tagged protein from Sino Biological; No catalogue number or limits are printed; also called CD137; TNFRSF9; source: bought: Sino Biological, expressed in HEK293 cells
On to B2, for which the Kd is 10 nM.
